# Measured values from the antibiotic and cytotoxicity screens of Wong et al. (2023).
# Some of the results follow.
# System: HepG2
# Assay: cytotoxicity call (relative viability < 0.9)
# Settings: 10 µM
row,Compound,cytotoxicity call
1,c1ccc(Oc2ccccc2)cc1,inactive
2,NC1CONC1=O (centres undefined),inactive
3,C[C@H]1CN([C@@H](C)CO)S(=O)(=O)c2ccc(-c3ccc(F)cc3)cc2O[C@H]1CN(C)C(=O)C1CCOCC1,inactive
4,C[C@H]1CN([C@@H](C)CO)C(=O)c2cccc(NC(=O)Nc3cccc4ccccc34)c2O[C@H]1CN(C)C(=O)Nc1ccc2c(c1)OCO2,inactive
5,COc1c(OCCCN2CCOCC2)ccc2c1N=C(NC(=O)c1cnc(N)nc1)N1CCN=C21,inactive
6,C[C@H]1CN([C@@H](C)CO)C(=O)c2cc(N(C)C)ccc2O[C@@H]1CN(C)S(C)(=O)=O,inactive
7,C[C@@H]1CCCCO[C@@H](CN(C)S(=O)(=O)c2ccc(F)cc2)[C@@H](C)CN([C@@H](C)CO)C(=O)c2cc(NC(=O)Nc3ccc4c(c3)OCO4)ccc2O1,inactive
8,COc1cccc(S(=O)(=O)N[C@@H]2C=C[C@H](CC(=O)NC3CCC3)O[C@@H]2CO)c1,inactive
9,C[C@@H]1CN([C@@H](C)CO)C(=O)c2cc(NC(=O)c3ccccc3)ccc2O[C@@H](C)CCCCO[C@@H]1CN(C)C(=O)CCC(F)(F)F,inactive
